Data from the supplement of paper PMC4604168 (melanoma cell lines).
Some of the results follow. Many values rest on one well or one pass, so single values are uncertain.

Test system: A101D
Assay: cell count relative to DMSO control; melanoma cells; higher = more viable cells
Settings: library dose: low library concentration; 72 h
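Also: cell number obtained by counting DAPI-stained nuclei in high-throughput microscope images with image analysis software, screen run in 1,536-well plates.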

SMILES	cell count [%]
O=C(O)c1ccc2c(c1)nc(Nc1cccc(Cl)c1)c1ccncc12 + C=C(c1ccc(C(=O)O)cc1)c1cc2c(cc1C)C(C)(C)CCC2(C)C [Bexarotene] (first compound 0.4 µM, partner dose 2 µM)	111
O=C(O)[C@@H]1[O][Sb](=[O])([O][Sb]2(=[O])[O][C@H]([C@H](O)CO)[C@H](O)[C@H](C(=O)O)[O]2)[O][C@H]([C@H](O)CO)[C@@H]1O (stereo partly drawn) [stibogluconate] + CS(=O)(=O)CCNCc1ccc(-c2ccc3ncnc(Nc4ccc(OCc5cccc(F)c5)c(Cl)c4)c3c2)o1 [lapatinib] (first compound 2 µM, partner dose 0.8 µM)	95.2
O=C(O)c1ccc2c(c1)nc(Nc1cccc(Cl)c1)c1ccncc12 + NCC(=O)Nc1ccc(-n2nc(C(F)(F)F)cc2-c2ccc3c(ccc4ccccc43)c2)cc1 [OSU03012] (first compound 0.4 µM, partner dose 1 µM)	119
O=C(Nc1cc(C(F)(F)F)cc(C(F)(F)F)c1)c1cc(Cl)ccc1O + CNC(=O)c1cc(Oc2ccc(NC(=O)Nc3ccc(Cl)c(C(F)(F)F)c3)cc2)ccn1 [sorafenib] (first compound 0.016 µM, partner dose 0.4 µM)	85.4

Test system: A2058
Assay: as above
Settings: library dose: low library concentration; 72 h

SMILES	cell count [%]
Cc1cc(N2CCOCC2)cc2[nH]c(-c3c(NC[C@@H](O)c4cccc(Cl)c4)cc[nH]c3=O)nc12 + NCC(=O)Nc1ccc(-n2nc(C(F)(F)F)cc2-c2ccc3c(ccc4ccccc43)c2)cc1 [OSU03012] (first compound 0.2 µM, partner dose 1 µM)	108
O=C(O)c1ccc2c(c1)nc(Nc1cccc(Cl)c1)c1ccncc12 + CO[C@@H]1[C@H](N(C)C(=O)c2ccccc2)C[C@H]2O[C@]1(C)n1c3ccccc3c3c4c(c5c6ccccc6n2c5c31)C(=O)NC4 [Midostaurin] (first compound 0.4 µM, partner dose 0.08 µM)	76.5
O=C(Nc1cc(C(F)(F)F)cc(C(F)(F)F)c1)c1cc(Cl)ccc1O + NCC(=O)Nc1ccc(-n2nc(C(F)(F)F)cc2-c2ccc3c(ccc4ccccc43)c2)cc1 [OSU03012] (first compound 0.016 µM, partner dose 1 µM)	105
O=C(Nc1cc(C(F)(F)F)cc(C(F)(F)F)c1)c1cc(Cl)ccc1O + OCc1c[nH]c2ccccc12 [Indole-3-carbinol] (first compound 0.016 µM, partner dose 0.8 µM)	84.5
O=C(O)c1ccc2c(c1)nc(Nc1cccc(Cl)c1)c1ccncc12 + Cc1cc(N2CCOCC2)cc2[nH]c(-c3c(NC[C@@H](O)c4cccc(Cl)c4)cc[nH]c3=O)nc12 [BMS536924] (first compound 0.4 µM, partner dose 0.2 µM)	95.3
O=C(O)[C@@H]1[O][Sb](=[O])([O][Sb]2(=[O])[O][C@H]([C@H](O)CO)[C@H](O)[C@H](C(=O)O)[O]2)[O][C@H]([C@H](O)CO)[C@@H]1O (stereo partly drawn) [stibogluconate] + CC(C)(C)c1cnc(CSc2cnc(NC(=O)C3CCNCC3)s2)o1 [SNS-032] (first compound 2 µM, partner dose 0.01 µM)	99.1
O=C(Nc1cc(C(F)(F)F)cc(C(F)(F)F)c1)c1cc(Cl)ccc1O + COc1cc(Nc2ncc(F)c(Nc3ccc4c(n3)NC(=O)C(C)(C)O4)n2)cc(OC)c1OC [Tamatinib] (first compound 0.016 µM, partner dose 0.4 µM)	77.8
O=C(O)[C@@H]1[O][Sb](=[O])([O][Sb]2(=[O])[O][C@H]([C@H](O)CO)[C@H](O)[C@H](C(=O)O)[O]2)[O][C@H]([C@H](O)CO)[C@@H]1O (stereo partly drawn) [stibogluconate] + Cc1nc(Nc2ncc(C(=O)Nc3c(C)cccc3Cl)s2)cc(N2CCN(CCO)CC2)n1 [dasatanib] (first compound 2 µM, partner dose 0.004 µM)	80.6
O=C(O)c1ccc2c(c1)nc(Nc1cccc(Cl)c1)c1ccncc12 + CN(NC(=O)CC(=O)NN(C)C(=S)c1ccccc1)C(=S)c1ccccc1 [STA4783] (first compound 0.4 µM, partner dose 0.006 µM)	86.7
O=C(Nc1cc(C(F)(F)F)cc(C(F)(F)F)c1)c1cc(Cl)ccc1O + O=c1[nH]nc(Sc2ncc([N+](=O)[O-])s2)n1-c1ccc2c(c1)OCCO2 [BI78D3] (first compound 0.016 µM, partner dose 0.2 µM)	101
O=C(Nc1cc(C(F)(F)F)cc(C(F)(F)F)c1)c1cc(Cl)ccc1O + O=C(CCCCCCC(=O)Nc1ccccc1)NO [vorinostat] (first compound 0.016 µM, partner dose 0.08 µM)	98.2
O=C(O)[C@@H]1[O][Sb](=[O])([O][Sb]2(=[O])[O][C@H]([C@H](O)CO)[C@H](O)[C@H](C(=O)O)[O]2)[O][C@H]([C@H](O)CO)[C@@H]1O (stereo partly drawn) [stibogluconate] + Cc1ccc(NC(=O)c2cccc(N(C)C)c2)cc1NC(=O)c1ccc(O)cc1 [ZM336372] (first compound 2 µM, partner dose 2 µM)	92.8
O=C(O)[C@@H]1[O][Sb](=[O])([O][Sb]2(=[O])[O][C@H]([C@H](O)CO)[C@H](O)[C@H](C(=O)O)[O]2)[O][C@H]([C@H](O)CO)[C@@H]1O (stereo partly drawn) [stibogluconate] + CN(C)S(=O)(=O)c1ccc2c(c1)/C(=C/c1cc3c([nH]1)CCCC3)C(=O)N2 [SU6656] (first compound 2 µM, partner dose 0.4 µM)	98
O=C(Nc1cc(C(F)(F)F)cc(C(F)(F)F)c1)c1cc(Cl)ccc1O + Cc1ccc(Nc2nccc(N(C)c3ccc4c(C)n(C)nc4c3)n2)cc1S(N)(=O)=O [Pazopanib] (first compound 0.016 µM, partner dose 0.4 µM)	91.4
O=C(Nc1cc(C(F)(F)F)cc(C(F)(F)F)c1)c1cc(Cl)ccc1O + O=C(O)c1ccc(-c2c[nH]c3ncc(-c4ccccc4)cc23)cc1C1CCCC1 [GSK650394] (first compound 0.016 µM, partner dose 0.16 µM)	98.6
O=C(O)c1ccc2c(c1)nc(Nc1cccc(Cl)c1)c1ccncc12 + C[C@@H]1CCN(C(=O)CC#N)C[C@@H]1N(C)c1ncnc2[nH]ccc12 [CP690550] (first compound 0.4 µM, partner dose 1 µM)	91.5
O=C(Nc1cc(C(F)(F)F)cc(C(F)(F)F)c1)c1cc(Cl)ccc1O + C[C@@H]1CCN(C(=O)CC#N)C[C@@H]1N(C)c1ncnc2[nH]ccc12 [CP690550] (first compound 0.016 µM, partner dose 1 µM)	92.4
O=C(O)[C@@H]1[O][Sb](=[O])([O][Sb]2(=[O])[O][C@H]([C@H](O)CO)[C@H](O)[C@H](C(=O)O)[O]2)[O][C@H]([C@H](O)CO)[C@@H]1O (stereo partly drawn) [stibogluconate] + CO[C@@H]1[C@H](N(C)C(=O)c2ccccc2)C[C@H]2O[C@]1(C)n1c3ccccc3c3c4c(c5c6ccccc6n2c5c31)C(=O)NC4 [Midostaurin] (first compound 2 µM, partner dose 0.08 µM)	85.3
O=C(O)[C@@H]1[O][Sb](=[O])([O][Sb]2(=[O])[O][C@H]([C@H](O)CO)[C@H](O)[C@H](C(=O)O)[O]2)[O][C@H]([C@H](O)CO)[C@@H]1O (stereo partly drawn) [stibogluconate] + CC(=O)c1c(C)c2cnc(Nc3ccc(N4CCNCC4)cn3)nc2n(C2CCCC2)c1=O [palbociclib] (first compound 2 µM, partner dose 0.04 µM)	94.3
O=C(O)[C@@H]1[O][Sb](=[O])([O][Sb]2(=[O])[O][C@H]([C@H](O)CO)[C@H](O)[C@H](C(=O)O)[O]2)[O][C@H]([C@H](O)CO)[C@@H]1O (stereo partly drawn) [stibogluconate] + COc1cc(Nc2ncc(F)c(Nc3ccc4c(n3)NC(=O)C(C)(C)O4)n2)cc(OC)c1OC [Tamatinib] (first compound 2 µM, partner dose 0.4 µM)	87
O=C(Nc1cc(C(F)(F)F)cc(C(F)(F)F)c1)c1cc(Cl)ccc1O + CC1(C)CCC(c2ccc(Cl)cc2)=C(CN2CCN(c3ccc(C(=O)NS(=O)(=O)c4ccc(N[C@H](CCN5CCOCC5)CSc5ccccc5)c(S(=O)(=O)C(F)(F)F)c4)cc3)CC2)C1 [ABT263] (first compound 0.016 µM, partner dose 0.4 µM)	93.6
O=C(O)[C@@H]1[O][Sb](=[O])([O][Sb]2(=[O])[O][C@H]([C@H](O)CO)[C@H](O)[C@H](C(=O)O)[O]2)[O][C@H]([C@H](O)CO)[C@@H]1O (stereo partly drawn) [stibogluconate] + C=CCn1c(=O)c2cnc(Nc3ccc(N4CCN(C)CC4)cc3)nc2n1-c1cccc(C(C)(C)O)n1 [MK1775] (first compound 2 µM, partner dose 0.02 µM)	94.6
O=C(Nc1cc(C(F)(F)F)cc(C(F)(F)F)c1)c1cc(Cl)ccc1O + CN(c1ncccc1CNc1nc(Nc2ccc3c(c2)CC(=O)N3)ncc1C(F)(F)F)S(C)(=O)=O [PF562271] (first compound 0.016 µM, partner dose 0.08 µM)	93.1
O=C(Nc1cc(C(F)(F)F)cc(C(F)(F)F)c1)c1cc(Cl)ccc1O + COc1ccc(C2=N[C@@H](c3ccc(Cl)cc3)[C@@H](c3ccc(Cl)cc3)N2C(=O)N2CCNC(=O)C2)c(OC(C)C)c1 [Nutlin-3] (first compound 0.016 µM, partner dose 0.1 µM)	96.6
